# Source: paper PMC4336329 (PLoS ONE, 2015)
# The campaign covered roughly 310,000 compounds. About 2,200 (0.71%) showed an effect of 50% or more. The effect is printed as a negative number. The list shows a part of the results.
# Target: human ether-à-go-go-related gene (hERG) potassium channel (human, UniProt Q12809)
# Assay: primary screen, population patch clamp on CHO cells stably expressing hERG
# human ether-à-go-go-related gene (hERG) potassium channel, sequence (Q12809 whole entry, looked up): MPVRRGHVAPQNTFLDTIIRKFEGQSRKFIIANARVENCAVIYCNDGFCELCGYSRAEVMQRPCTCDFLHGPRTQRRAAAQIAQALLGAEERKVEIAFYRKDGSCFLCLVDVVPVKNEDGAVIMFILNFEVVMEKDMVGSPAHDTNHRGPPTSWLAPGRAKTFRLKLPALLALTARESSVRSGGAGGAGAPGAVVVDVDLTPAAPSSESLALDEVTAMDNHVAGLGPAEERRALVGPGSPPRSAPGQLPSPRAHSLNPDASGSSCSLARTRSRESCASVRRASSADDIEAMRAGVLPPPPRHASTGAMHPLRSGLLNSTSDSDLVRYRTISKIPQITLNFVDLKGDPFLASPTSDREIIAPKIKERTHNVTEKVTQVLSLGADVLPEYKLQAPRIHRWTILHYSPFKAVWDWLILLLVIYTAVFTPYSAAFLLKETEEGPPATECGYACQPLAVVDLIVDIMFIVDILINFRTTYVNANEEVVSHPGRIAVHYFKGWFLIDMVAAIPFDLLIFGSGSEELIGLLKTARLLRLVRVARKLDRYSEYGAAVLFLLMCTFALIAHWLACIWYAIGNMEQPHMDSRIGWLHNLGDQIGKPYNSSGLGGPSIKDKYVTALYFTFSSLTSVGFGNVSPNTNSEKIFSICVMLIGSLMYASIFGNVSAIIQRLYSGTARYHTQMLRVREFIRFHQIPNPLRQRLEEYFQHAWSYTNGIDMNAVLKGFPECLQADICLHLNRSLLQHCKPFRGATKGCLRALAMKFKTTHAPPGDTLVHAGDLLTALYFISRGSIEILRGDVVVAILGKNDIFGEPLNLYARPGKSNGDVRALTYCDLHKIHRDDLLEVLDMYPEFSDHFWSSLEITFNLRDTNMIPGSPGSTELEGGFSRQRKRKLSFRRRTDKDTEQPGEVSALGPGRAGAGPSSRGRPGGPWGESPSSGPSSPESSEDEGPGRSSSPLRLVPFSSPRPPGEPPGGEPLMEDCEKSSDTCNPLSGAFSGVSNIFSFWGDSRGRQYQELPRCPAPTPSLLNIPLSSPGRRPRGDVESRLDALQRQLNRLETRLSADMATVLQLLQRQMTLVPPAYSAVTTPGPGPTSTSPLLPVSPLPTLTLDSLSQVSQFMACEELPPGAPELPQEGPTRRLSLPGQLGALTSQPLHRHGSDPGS
row,SMILES,"hERG current change (%, negative = inhibition) at 1uM [%]"
1,C=CCn1cc(Cl)cc(C(=O)Nc2ccccc2)c1=O,8.64
2,Nc1ccc(-c2c3ccc(=O)cc-3oc3cc(O)ccc23)c(C(=O)O)c1,12.4
3,CCC1CCCCN1S(=O)(=O)c1ccc(C(=O)Nc2nnc(C3CC3)o2)cc1 (centres unmarked),5.35
4,CC(C)OCCCNC(=O)c1ccc2c(c1)ncn2C1CCCC1,6.25
5,Cc1cc(OC(C)C(N)=O)nc(-c2ccccc2)n1 (centres unmarked),4.52
6,CCC(=O)N1CCN(c2cc3c(cc2F)c(=O)c(C(=O)O)cn3CC)CC1,6.89
7,CC12CCC(C(=O)Nc3ccccc3Br)(C/C1=N\O)C2(C)C (centres unmarked),11.7
8,O=S(=O)(NCc1ccccc1)NCc1ccccc1,11.8
9,COC(=O)c1ccc(CSC(=N)N)o1,6.49
10,O=C(OC1CCOC1=O)c1ccc2ccccc2n1 (centres unmarked),7.36
11,Cc1ccc2c(CN3CCOCC3)cc(=O)oc2c1,-6.01
12,COc1ccc(OC)c(NC(=O)CSC2=NCCS2)c1,8.51
13,Cc1cccc(N2C(=O)CSC2c2cccnc2)c1 (centres unmarked),13.6
14,COc1ccc(S(=O)(=O)N2CCN(C(=O)C3COc4ccccc4O3)CC2)cc1 (centres unmarked),8.97
15,O=C1CC(N2CCN(c3ccccc3F)CC2)C(=O)N1c1ccc2c(c1)OCCO2 (centres unmarked),21.3
16,Cc1ccc(OCc2cc(C(=O)N3CC4C[C@@H]5CC3C[C@H](C4)C5)no2)cc1C,18.4
17,COc1ccc(N(CC(=O)Nc2ccc(C(N)=O)cc2)S(=O)(=O)c2ccc(C)c([N+](=O)[O-])c2)cc1,13.5
18,Cc1nn(C)cc1C=NCCOCc1ccccc1,3.34
19,COCC(=O)Nc1sc2c(c1C(=O)OC)CCCC2,-15.9
20,CN(C1=NS(=O)(=O)c2ccccc21)c1ccc(OC(=O)c2ccccc2)cc1,16.4
21,COc1ccc(NC(=O)CS(=O)(=O)c2ccccc2)cc1,15.7
22,O/N=C/c1cccn1-c1ccc(O)cc1,-4.18
23,Nc1ncnc2nc[nH]c12,15.6
24,Cc1cc(Cl)ccc1OCC(=O)N/N=C1\CCCc2ccccc21,-4.02
25,O=C(NCCCN1CCCC1=O)C1CCC(CNS(=O)(=O)c2ccc(Cl)cc2)CC1 (centres unmarked),3.3
26,COc1ccc(Cl)cc1NC(=O)CN(C)C(=O)CN1C(=O)NC(C)(C)C1=O,12.2
